# Measured values as given in the supplement of paper PMC8728848.
# The list shows a part of the results.
# Tests used:
# Assay in all cases: glycan array binding signal (z-score within array); higher = stronger binding
# Conditions in all cases: glycan notation: IUPAC condensed, linker removed
# [1] = biological target: Fuc(a1-3)GlcNAc
# Method in brief: (§1)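 Columns mapping to the same glycan were averaged after glycan names were converted to IUPAC-condensed notation. The data come from 3228 arrays in the Consortium for Functional Glycomics database, limited to those with an available protein sequence. Binding is reported as a within-array Z-score averaged across arrays of one protein sequence and across linkers.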
# [2] = biological target: Fuc(a1-3)[Gal(b1-4)]Glc6S
# Method in brief: as §1
# [3] = biological target: Fuc(a1-3)[Gal(b1-4)]GlcNAc
# Method in brief: as §1
# [4] = biological target: Fuc(a1-3)[Gal(b1-4)]GlcNAc(b1-2)Man
# Method in brief: as §1
# [5] = biological target: Fuc(a1-3)[Gal(b1-4)]GlcNAc(b1-2)Man(a1-3)[Fuc(a1-3)[Gal(b1-4)]GlcNAc(b1-2)Man(a1-6)]Man(b1-4)GlcNAc(b1-4)GlcNAc
# Method in brief: as §1
# [6] = biological target: Fuc(a1-3)[Gal(b1-4)]GlcNAc(b1-2)Man(a1-3)[Fuc(a1-3)[Gal(b1-4)]GlcNAc(b1-2)Man(a1-6)]Man(b1-4)GlcNAc(b1-4)[Fuc(a1-6)]GlcNAc
# Method in brief: as §1
# [7] = biological target: Fuc(a1-3)[Gal(b1-4)]GlcNAc(b1-3)Gal(b1-3)[Fuc(a1-4)]GlcNAc
# Method in brief: as §1
# [8] = biological target: Fuc(a1-3)[Gal(b1-4)]GlcNAc(b1-3)Gal(b1-4)[Fuc(a1-3)]GlcNAc
# Method in brief: as §1
# [9] = biological target: Fuc(a1-3)[Gal(b1-4)]GlcNAc(b1-3)Gal(b1-4)[Fuc(a1-3)]GlcNAc(b1-3)Gal(b1-4)[Fuc(a1-3)]GlcNAc
# Method in brief: as §1
# [10] = biological target: Fuc(a1-3)[Gal(b1-4)]GlcNAc(b1-3)GalNAc
# Method in brief: as §1
# [11] = biological target: Fuc(a1-3)[Gal(b1-4)]GlcNAc(b1-6)GalNAc
# Method in brief: as §1
# [12] = biological target: Fuc(a1-3)[Gal(b1-4)]GlcNAc(b1-6)[Gal(b1-3)GlcNAc(b1-3)]Gal(b1-4)Glc
# Method in brief: as §1
# [13] = biological target: Fuc(a1-3)[Gal(b1-4)]GlcNAc6S
# Method in brief: as §1
# [14] = biological target: Fuc(a1-3)[Gal3S(b1-4)]Glc
# Method in brief: as §1
# [15] = biological target: Fuc(a1-3)[Gal3S(b1-4)]GlcNAc
# Method in brief: as §1
# [16] = biological target: Fuc(a1-3)[Gal3S(b1-4)]GlcNAc6S
# Method in brief: as §1
# [17] = biological target: Fuc(a1-3)[GalNAc(b1-4)]GlcNAc
# Method in brief: as §1
# [18] = biological target: Fuc(a1-3)[GalNAc(b1-4)]GlcNAc6S
# Method in brief: as §1
# [19] = biological target: Fuc(a1-4)GlcNAc
# Method in brief: as §1
# [20] = biological target: Fuc(b1-3)GlcNAc
# Method in brief: as §1
# [21] = biological target: Gal(a1-2)Gal
# Method in brief: as §1
# [22] = biological target: Gal(a1-3)Gal
# Method in brief: as §1
# [23] = biological target: Gal(a1-3)Gal(b1-3)GlcNAc
# Method in brief: as §1
# [24] = biological target: Gal(a1-3)Gal(b1-3)GlcNAc(b1-2)Man
# Method in brief: as §1
# [25] = biological target: Gal(a1-3)Gal(b1-3)GlcNAc(b1-2)Man(a1-3)[Gal(a1-3)Gal(b1-3)GlcNAc(b1-2)Man(a1-6)]Man(b1-4)GlcNAc(b1-4)GlcNAc
# Method in brief: as §1
# [26] = biological target: Gal(a1-3)Gal(b1-3)GlcNAc(b1-3)GalNAc
# Method in brief: as §1
# [27] = biological target: Gal(a1-3)Gal(b1-3)GlcNAc(b1-6)GalNAc
# Method in brief: as §1
# [28] = biological target: Gal(a1-3)Gal(b1-3)[Fuc(a1-4)]GlcNAc(b1-2)Man(a1-3)[Gal(a1-3)Gal(b1-3)[Fuc(a1-4)]GlcNAc(b1-2)Man(a1-6)]Man(b1-4)GlcNAc(b1-4)GlcNAc
# Method in brief: as §1
# [29] = biological target: Gal(a1-3)Gal(b1-4)Glc
# Method in brief: as §1
# [30] = biological target: Gal(a1-3)Gal(b1-4)GlcNAc
# Method in brief: as §1
binder,measurement,setting,value
SialidaseA (Arthrobacter ureafaciens) (protein) MRSNSTSAPSLVRRAATGVLTCAVSIGLLAGLGLPAQAAPTPPNSPTLPPGSFSETNLAADRTAANFFYRIPALTYLGNDVVLAAWDGRPGSAADAPNPNSIVQRRSTDGGKTWGPVQVIAAGHVADASGPRYGYSDPSYIYDAEANKVFAFFVYSKDQGFGGSQFGNDDADRNVISSAVIESSDAGVTWSQPRLITSVTKPGTSKTNPAAGDVRSNFASSGEGIQLKYGPHKGRLIQQYAGDVRQADGSNKIQAYSVYSDDHGVTWHKGANVGDRMDENKTVELSDGRVLLNSRDNANRGYRKVAVSTDGGATYGPVSQDTELPDPANNGAIARMFPNAAQGSADAKKLIFTNANSKTGRENVSARVSCDDGETWPGVRTIRSGFSAYSTVTRLADGKFGVLYEGNYTDNMPFATFDDAWLNYVCAPLAVPAVNIAPSATQEVPVTVTNQEATTLSGATATVYTPSGWSATTVPVPDVAPGASVTVTVALTAPADASGPRSLNAAFTTADGRVSQFTFTATTPVAPQVGLTITGSAPARDVAANPYQAGDVLGYTLNVKSTANVAANSVPLTGTFDSGFLPPAAPNCRYNNLAAGASYNCTTAKHTITAADMERGYFVPEATFSITSTTTPSLTKTVQFTGAAVALRDGLISADISGARTDVGRDLATRPYAAGELVPYAFTVKNTSPFVEQVVPTAGNFSPFLPAGAGNCRYLSLPAGQSYECATPRHAVTAEEVEQGFFVPDTTWEVSAAGQSTRTYRINGGEVDLLVRDAALSATVVAEWKDADGDRFASAGDPVTFTYTVGNAGNVALTGLEAPDAGISLPFLAPGDTATATREHVLTAADVAGGSLAASAFEATARNGSKEVTATAEGQPLELKVQPAQPSKEPELTVQDLEDQTPPFDLGTAFKYRTGQKVSLAGLEYGQWYYVYLNKTGYRLGWMFPTTGDTVEFILPPEVRNGRDDVVVLDKDGRRVSFDRLQVTPKGEKI,glycan array binding signal (z-score),[1],-0.8
same,glycan array binding signal (z-score),[2],-0.604
same,glycan array binding signal (z-score),[3],-0.438
same,glycan array binding signal (z-score),[4],-0.877
same,glycan array binding signal (z-score),[5],-0.677
same,glycan array binding signal (z-score),[6],-0.138
same,glycan array binding signal (z-score),[7],-0.767
same,glycan array binding signal (z-score),[8],-0.612
same,glycan array binding signal (z-score),[9],-0.257
same,glycan array binding signal (z-score),[10],-0.515
same,glycan array binding signal (z-score),[11],-0.571
same,glycan array binding signal (z-score),[12],-0.73
same,glycan array binding signal (z-score),[13],-0.53
same,glycan array binding signal (z-score),[14],-0.726
same,glycan array binding signal (z-score),[15],-0.8
same,glycan array binding signal (z-score),[16],-0.359
same,glycan array binding signal (z-score),[17],-0.38
same,glycan array binding signal (z-score),[18],-0.682
same,glycan array binding signal (z-score),[19],-0.465
same,glycan array binding signal (z-score),[20],-0.514
same,glycan array binding signal (z-score),[21],-0.616
same,glycan array binding signal (z-score),[22],-0.532
same,glycan array binding signal (z-score),[23],-0.563
same,glycan array binding signal (z-score),[24],-0.414
same,glycan array binding signal (z-score),[25],0.062
same,glycan array binding signal (z-score),[26],-0.722
same,glycan array binding signal (z-score),[27],-0.605
same,glycan array binding signal (z-score),[28],-0.047
same,glycan array binding signal (z-score),[29],-0.505
same,glycan array binding signal (z-score),[30],-0.53
